Measured values as given in the RNAGym collection of RNA variant scans (doi:10.1093/nar/gkz1192).
Read counts are not given, so values of variants with three or more changes are uncertain.

B1: CPEB3 Ribozyme (parent)
chain: UAACAGGGGGCCACAGCAGAAGCGUUCACGUCGCAGCCCCUGUCAGAUUCUGGUGAAUCUGCGAAUUCUGCUGUAUAUCUC

Variants of: B1
Assay: self-cleavage, relative activity (ratio to wild type); higher = more cleavage; in vitro, sequencing
Outline: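 Relative activity was defined as the cleaved/total read fraction for a variant divided by the same fraction for the unmutated ribozyme. CPEB3 self-cleaving ribozyme libraries were made by rounds of error-prone PCR, barcoded, and transcribed in vitro with T7 RNA polymerase for 5 hours at 37°C, and cleavage ran through transcription plus a 15 min DNase I step before EDTA. Illumina sequencing of template-switched reverse transcripts gave the reads, and DNA sequencing mapped the barcodes. Averages come from three batches, using variants with at least 5 reads.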

| Variant | self-cleavage |
| --- | --- |
| U25C U49A A65U | 0.11 |
| U25C U26C A45G U54C | 0.09 |
| U25C G30A U31C U66C G73A A77G | 0.06 |
| U25C G52A A56G | 0.21 |
| U25C C68A U80C | 0.17 |
| U25C U31C U54C | 0.29 |
| U25C G55A G63A | 0.23 |
| U25C C40U U43G U49C G53C U72C C81A | 0.05 |
| U25C U26A A47G | 0.22 |
| U25C C40A U51A U54C | 0.1 |
| U25C U26C U60A A64U U69C | 0.11 |
| U25C U26C U31A U43C A45G A75U | 0.14 |
| U25C G42C A56G U60A | 0.13 |
| U25C G53A C62U A64G A77G | 0.11 |
| U25C U41A U51A U54C A57U | 0.35 |
| U25C U48C A57G U76C | 0.43 |
| U25C C40U G46A U80A | 0.38 |
| U25C C40U U43C A45U | 0.16 |
| U25C C40U A45G U66A U80C | 0.09 |
| U25C U31G U48A | 0.46 |
| U25C U26A U31C U67A U72G | 0.14 |
| U25C U31A C79A | 0.27 |
| U25C U31C A35G U54C | 0.15 |
| U25C U43C U48C C50A | 0.37 |

| Variant | self-cleavage |
| --- | --- |
| U25C G33U U43G A56U U76C | 0.14 |
| U25C U41A A56G A65U U66C U80C | 0.13 |
| U25C U26C U41A U60C | 0.1 |
| U25C C62U U76A | 0.07 |
| U25C G30A U74G A75G | 0.19 |
| U25C U26A A47G U54C C62U A64U A75G | 0.04 |
| U25C U41A U49A U54C U78C | 0.04 |
| U25C U41C U76C | 0.21 |
| U25C C40U G61U U69C | 0.07 |
| U25C U26C A35G U74A | 0.32 |
| U25C U41C A45U U74C | 0.3 |
| U25C G36A U54C | 0.14 |
| U25C U31C A57U | 0.07 |
| U25C U49A U58C U66C | 0.18 |
| U25C C62U U67C U76A | 0.11 |
| U25C U26C U41A U58C U60C U67C | 0.34 |
| U25C U43C U67C U76C | 0.09 |
| U25C C38A U49C U54A U58A U60A U74A | 0.1 |
| U25C G33C G46C U48C A75U | 0.07 |
| U25C G52A C59U U69C | 0.19 |
| U25C C38U A65G | 0.12 |
| U25C C38G A64G | 0.07 |
| U25C U31C A45U U49C U67C U69A U72A | 0.04 |
| U25C U48A U51C G70C | 0.12 |

| Variant | self-cleavage |
| --- | --- |
| U25C U31C A35G | 0.15 |
| U25C U26C A57G | 0.07 |
| U25C U49A C71A | 0.17 |
| U25C U26A U43A | 0.27 |
| U25C U26C A47U U74A | 0.23 |
| U25C U26A U69C G70A U72C | 0.14 |
| U25C U31C U54C U80C | 0.32 |
| U25C U48C C71A | 0.08 |
| U25C U31C U49C U60G A65G | 0.27 |
| U25C U26C U60C | 0.19 |
| U25C U31C A47G U69C | 0.12 |
| U25C U26C U43G C62A U69A A75U U76C | 0.07 |
| U25C U26A U43C U49A G61C U69C | 0.14 |
| U25C C50U G52A | 0.13 |
| U25C G30A U66C U80A | 0.07 |
| U25C U26A A28U U43C A47G A57G U60C | 0.14 |
| U25C U26C U41C | 0.38 |
| U25C U48C A77G | 0.22 |
| U25C U41A U49A U69C U72G U76C | 0.06 |
| U25C C38U U54A A57G U69C U72C | 0.15 |
| U25C U26A C39A U66C | 0.15 |
| U25C G36A U58A | 0.16 |
| U25C C40G U49C U69A | 0.07 |
| U25C U31C U43A U69A | 0.21 |

| Variant | self-cleavage |
| --- | --- |
| U25C C62U U67C U72A | 0.06 |
| U25C U48C A57G U72C | 0.07 |
| U25C U31C U51C A77U C79A | 0.09 |
| U25C U41A G52U U67C | 0.05 |
| U25C G30A C38U U67C U76C | 0.06 |
| U25C U31C U67A U72A | 0.11 |
| U25C U43C C68G | 0.5 |
| U25C U31C A47G A75U | 0.23 |
| U25C U41A U54C U60C | 0.1 |
| U25C C38U U43C U51C U60A G63A U72A | 0.02 |
| U25C U31C U51C U66A U72A | 0.05 |
| U25C G30A U41C A45U | 0.31 |
| U25C U26C A65G C79U | 0.09 |
| U25C U41C U51C U66C | 0.09 |
| U25C U26C G53C A64G | 0.08 |
| U25C U31C U48A | 0.11 |
| U25C G63A C71U | 0.09 |
| U25C U31A A56G U72A | 0.08 |
| U25C U31C C37G U60A | 0.13 |
| U25C C50A A56G | 0.21 |
| U25C U26A C62U | 0.1 |
| U25C C39U A56U U58A C79A | 0.11 |
| U25C C39U A64U A65U G73A U80A | 0.05 |
| U25C C44A U72A | 0.07 |

| Variant | self-cleavage |
| --- | --- |
| U25C G33A A57U U72A | 0.08 |
| U25C C62U A77U | 0.06 |
| U25C U31G G36C A45G U49A | 0.17 |
| U25C U41C U72C | 0.46 |
| U25C G30A A47G U48A | 0.18 |
| U25C G52A U69C | 0.11 |
| U25C U26A A28U U51C | 0.22 |
| U25C U41A G52U U60A | 0.1 |
| U25C U26C G36A U43C A47G | 0.11 |
| U25C U41C U58A A77G U80A | 0.1 |
| U25C G30U U66C U72C | 0.17 |
| U25C U31A U60A | 0.07 |
| U25C U48C U60A | 0.13 |
| U25C U26A U80A | 0.77 |
| U25C U43C U60C A64U | 0.14 |
| U25C U41C U49A | 0.45 |
| U25C U26C U41A U51A U66C | 0.15 |
| U25C U43C U60C U78A | 0.15 |
| U25C U31C U78C | 0.22 |
| U25C U31C A64G | 0.26 |
| U25C C38A U72A U76C | 0.06 |
| U25C U31A U51C | 0.23 |
| U25C U43C U49C A56U | 0.34 |
| U25C U26C A47U U49C A57G | 0.21 |

| Variant | self-cleavage |
| --- | --- |
| U25C G33U U41A C44U U69C | 0.16 |
| U25C U26C G33C G46C U48C A75U | 0.15 |
| U25C U26C A56U C62U A77G | 0.05 |
| U25C U26C A35U C38A U66C | 0.2 |
| U25C U26A U69C | 0.2 |
| U25C U31C U54C A64G U67C U80C | 0.08 |
| U25C U41C U51C G63A U74C U80C | 0.11 |
| U25C U26A U72G | 0.22 |
| U25C G61C U78C | 0.05 |
| U25C C39A C59U U66C U80C | 0.13 |
| U25C G52C U69A | 0.21 |
| U25C C62U A65G | 0.17 |
| U25C U31C U43C C44U U49C G61A | 0.05 |
| U25C U31A G70U | 0.06 |
| U25C U43C C50U | 0.16 |
| U25C U48C A64U | 0.19 |
| U25C U31G U66G | 0.17 |
| U25C C40G A77U | 0.24 |
| U25C U41A U49A U80C | 0.33 |
| U25C G30A A45U A56G U66C A75G | 0.39 |
| U25C U41A A64G U78C | 0.15 |
| U25C U43C A65G | 0.42 |
| U25C C62U U69C | 0.04 |
| U25C U26C A47G U72G U74A A75G | 0.04 |

| Variant | self-cleavage |
| --- | --- |
| U25C U41C G52U A64G | 0.13 |
| U25C U26G C37A A64G A65G U76C | 0.01 |
| U25C U43C A57G U76A | 0.09 |
| U25C U41A A47U U54C | 0.07 |
| U25C U41C U51C A57G U78C | 0.21 |
| U25C U26C C40G A56U | 0.08 |
| U25C C38U A56G U76A | 0.05 |
| U25C G30A U66C | 0.11 |
| U25C U26C A47U U58A U69A | 0.18 |
| U25C G30A A35G A56G U66C | 0.25 |
| U25C U31C U49A A64G U72C | 0.17 |
| U25C C38U U69A U78C | 0.07 |
| U25C C38U U41C | 0.14 |
| U25C U31C A35U A56U U78C | 0.07 |
| U25C U41C G61U C62A A64G | 0.17 |
| U25C U41G A75G | 0.11 |
| U25C U43A G61A U72C U78C | 0.14 |
| U25C U31C A56G | 0.22 |
| U25C U43C A45G U74C | 0.2 |
| U25C U41A C71U | 0.12 |
| U25C U26C A35G A57G A65G A77C | 0.15 |
| U25C U31C U54C U67C | 0.11 |
| U25C U26C U43C A64G U67C | 0.11 |
